Results: PubChem BioAssay (NCATS)
Values joined by “and” are separate entries in the source; they are usually repeats but may differ in a detail not shown here. Equal entries are not always repeated. Inconclusive results, whose numbers are uncertain, are shown with a selection of clear calls. For some assays here: Where the call is inconclusive, the potency comes from a doubtful curve fit. Active and inactive are the calls of the source. Unless noted, calls follow the shape of the dose curve; as a rule, active = well fitted curve in the direction sought with a large enough effect; inconclusive = small, poorly fitted or top-dose-only effect, or another doubt; inactive = no such curve, though single readings can be large; an effect the other way counts as inactive or inconclusive.

What was measured:
[1] = qHTS of pediatric cancer cell lines to identify multiple opportunities for drug repurposing: Primary screen for DAOY cells (AID 1347090); settings: DAOY medulloblastoma viability, CellTiter-Glo luminescence, 48 h; activity change, negative = cytotoxic: at 46 µM (top of the series);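 also: plate controls were DMSO for no effect and bortezomib for full effect; nearly all actives have a fitted effect of over 55% in size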
Method in brief: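 Eight- or eleven-point concentration series, 48 h treatment at 37 degrees C in growth media; readout CellTiter-Glo luminescence. Potency and efficacy were taken from the concentration-response curves.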

[2] = qHTS of pediatric cancer cell lines to identify multiple opportunities for drug repurposing: Primary screen for Rh41 cells (AID 1347108); settings: Rh41 rhabdomyosarcoma viability, CellTiter-Glo luminescence, 48 h; series mostly up to 46 µM;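 also: luminescence drop marks cytotoxic hits; nearly all actives have a fitted effect of over 70% in size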
Method in brief: (§1)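 Plated cells (500-1,000 per well, growth media) were allowed to settle for 5 hours, treated with compound dilutions for 48 hours, then lysed with CellTiter-Glo for 15 min at room temperature before luminescence reading.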

[3] = Confirmatory qHTS for small molecule stabilizers of the endoplasmic reticulum resident proteome: Secreted ER Calcium Modulated Protein (SERCaMP) assay (AID 1508628); settings: SERCaMP secreted luciferase ER calcium/proteostasis reporter; series mostly up to 76.3 µM; also: % is scaled to controls: 0 for no effect and ±100 for the full control effect; nearly all actives have a fitted effect of over 40% in size
Method in brief: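 SH-SY5Y cells stably expressing GLuc-SERCaMP, treated 16 h with compound (primary 1.53, 7.67, 38.3 uM; confirmation 11 concentrations, up to 76.6 uM), then 100 nM thapsigargin for 4 h. Secreted Gaussia luciferase in medium read by coelenterazine luminescence.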

[4] = Cell Viability qHTS for small molecule stabilizers of the endoplasmic reticulum resident proteome (AID 1508629); settings: cell viability counter-screen, 100 nM thapsigargin for final 4 h;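 also: potency is read from the fitted curve at half-maximal effect; compound exposure about 46 h in total before the viability read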
[5] = Primary qHTS for small molecule stabilizers of the endoplasmic reticulum resident proteome: Secreted ER Calcium Modulated Protein (SERCaMP) assay (AID 1508630); settings: SH-SY5Y GLuc-SERCaMP (Gaussia luciferase released on ER calcium loss) secretion, thapsigargin, luminescence; activity change, negative = inhibition: at 38.4 µM (top of the series) unless noted; also: potency is read from the fitted curve at half-maximal effect
Method in brief: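 GLuc-SERCaMP-expressing SH-SY5Y cells, pretreated 16 h with compound, are challenged with thapsigargin to empty ER calcium stores; after 4 h, coelenterazine is added directly to the medium and luminescence is imaged.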

CRL-7250 = normal cell line; test: Cytotoxic Profiling of Annotated Libraries Using Quantitative High-Throughput Screening (AID 1296008); settings: Five cell lines viability, CellTiter-Glo ATP luminescence, 48-72 h; max response: hits give low values; also: nearly all actives have a fitted effect of over 60% in size; also: potency is read from the fitted curve at half-maximal effect; as to max response: % is scaled to controls: 0 for no effect and ±100 for the full control effect
Method in brief: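 Compounds were pin-transferred onto cells and incubated 48 or 72 hr at 37 degree Celsius, 95% humidity. CellTiter-Glo was added, plates sat 10 min at room temperature, then ATP-coupled luminescence was imaged as the viability read-out.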

[6] = Drug repurposing screens with cells derived from glioblastoma tumor samples (AID 1345199); settings: GBM patient neurospheres viability, ATP luminescence, 48 h; Potency: tumour line A unless noted; activity, negative = cell killing: at 46 µM (top of the series), tumour line A unless noted; also: % is scaled to controls: 0 for no effect and ±100 for the full control effect; nearly all actives have a fitted effect of over 40% in size
Method in brief: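 Four patient lines of CD133+ GBM neurospheres were screened at several concentrations; hits were retested in those lines plus three slower-growing GBM lines, using 48-hour treatment and ATP-based viability.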

[7] = test system: Zika virus NS2B-NS3 protease (unlinked complex); test: Primary screen GU Rhodamine qHTS for Zika virus inhibitors: Unlinked NS2B-NS3 protease assay (AID 1347159); settings: Recombinant ZIKV NS2B-NS3 protease, Rhodamine110 substrate fluorescence; series mostly up to 107 µM; also: % is scaled to controls: 0 for no effect and ±100 for the full control effect; nearly all actives have a fitted effect of over 60% in size
Method in brief: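 Noncovalent NS2B hydrophilic domain–NS3 protease domain complex (25 nM) preincubated 15 min at room temperature with compounds (up to 114 microM) in 10 mM Tris-HCl pH 8.0, 0.01% Tween 20; 1.5 microM Rhodamine110 substrate added, fluorescence change over 15 min fitted to Hill equation.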

[8] = molecular target: Cytochrome P450 2C9 (Homo sapiens) (UniProt P11712); test: Cytochrome P450 family 2 subfamily C member 9 (CYP2C9) small molecule antagonists: luciferase biochemical (cell-free) qHTS assay (AID 1645842; active = well fitted curve in the direction sought with a large enough effect in the repeat runs; inconclusive = weak or mixed curves; inactive = no such curve, though single readings can be large; an effect the other way counts as inactive or inconclusive; also: potency is read from the fitted curve at half-maximal effect; nearly all actives have a fitted effect of over 55% in size); settings: P450-Glo CYP2C9 enzyme assay, luciferin luminescence; series mostly up to 57.4 µM
UniProt P11712, sequence (P11712 whole entry, looked up): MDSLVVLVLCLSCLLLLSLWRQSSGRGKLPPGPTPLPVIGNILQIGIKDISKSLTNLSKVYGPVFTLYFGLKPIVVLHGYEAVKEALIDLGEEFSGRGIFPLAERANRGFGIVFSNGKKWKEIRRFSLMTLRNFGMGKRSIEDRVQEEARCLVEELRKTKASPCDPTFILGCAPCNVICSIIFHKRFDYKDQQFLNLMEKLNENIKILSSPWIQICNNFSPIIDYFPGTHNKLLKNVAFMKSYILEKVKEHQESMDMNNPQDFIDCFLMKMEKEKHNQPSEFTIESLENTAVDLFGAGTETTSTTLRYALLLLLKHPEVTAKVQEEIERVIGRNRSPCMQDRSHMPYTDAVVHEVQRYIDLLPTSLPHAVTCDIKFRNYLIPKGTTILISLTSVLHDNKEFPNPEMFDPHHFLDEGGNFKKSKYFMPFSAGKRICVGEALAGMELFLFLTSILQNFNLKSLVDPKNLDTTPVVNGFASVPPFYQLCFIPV
Method in brief: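 Luminescence, after 20 min with luciferin detection reagent, reflected CYP2C9 turnover during a 1 h NADPH-driven reaction at 37C. Enzyme-substrate mix contained 0.4% bovine serum albumin and was preincubated with compound 10 min at room temperature.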

[9] = molecular target: Luciferin 4-monooxygenase (Photinus pyralis) (UniProt P08659); test: Primary firefly luciferase (FLuc) qHTS assay for identification of artifact compounds. (AID 1845220); settings: purified firefly luciferase, luminescence, 5 min; series mostly up to 54.1 µM; also: potency is read from the fitted curve at half-maximal effect; nearly all actives have a fitted effect of over 60% in size
Method in brief: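 Reaction readout was CCD-imaged luminescence, taken 5 min after adding 10 nM purified firefly enzyme to compound-treated wells holding 10 uM luciferin and ATP in pH 7.6 buffer.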

[10] = Primary redox qHTS assay for identification of artifact compounds. (AID 1845223); settings: Amplex Red/HRP redox cycling with DTT, fluorescence; redox activity (% of DA3003): at 53.8 µM (top of the series); also: potency is read from the fitted curve at half-maximal effect;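 as to redox activity (% of DA3003): 0% = DMSO and 100% = reference compound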
Method in brief: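 Amplex Red (25 uM) and HRP (250 mU/mL) in HBSS, with compounds for 15 min, then 250 uM DTT for 30 min, room temperature, dark. Fluorescence 525/598 nm read; normalized to DMSO and 10 uM DA3003; Hill fit.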

[11] = P-glycoprotein substrates identified in KB-8-5-11 adenocarcinoma cell line, qHTS therapeutic library screen (AID 1346987); settings: KB-8-5-11 (P-gp overexpressing) viability, CellTiter-Glo, 72 h; series mostly up to 44.5 µM; also: nearly all actives have a fitted effect of over 65% in size; also: potency is read from the fitted curve at half-maximal effect
Method in brief: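 KB-8-5-11, a colchicine-selected P-gp-overexpressing KB-3-1 subline, was grown without colchicine for the assay. Cells were seeded at 500 cells/well, dosed in concentration-response and incubated 72 h at 37 degree C, 5% CO2. Viability was read by CellTiter-Glo luminescence.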

[12] = Primary qHTS for inhibitors of nuclear receptor binding SET domain protein 2 (NSD2) in an RCH-ACV wild type WT cells (2C) (AID 1645877); settings: RCH-ACV NSD2 WT (2C) viability, CellTiter-Glo, 72 h; activity change, negative = cell killing: at 44.9 µM (top of the series) unless noted; series mostly up to 44.9 µM; also: nearly all actives have a fitted effect of over 70% in size; also: potency is read from the fitted curve at half-maximal effect; as to activity change, negative = cell killing: % is scaled to controls: 0 for no effect and ±100 for the full control effect
[13] = Primary qHTS for inhibitors of nuclear receptor binding SET domain protein 2 (NSD2) in an isogenic RCH-ACV NSD2 p.E1099K mutant (9B) (AID 1645876); settings: RCH-ACV (leukaemia line) NSD2 E1099K (9B) viability, CellTiter-Glo, 72 h; series mostly up to 44.9 µM; also: potency is read from the fitted curve at half-maximal effect; nearly all actives have a fitted effect of over 70% in size
[14] = molecular target: 3',5'-cyclic-AMP phosphodiesterase 4B (Homo sapiens) (UniProt Q07343); test: qHTS Assay for Inhibitors of PDE-IV (AID 607; active = well fitted activation curve with a large enough effect in the main read-out, with a control signal flat, not every such curve was filed as active; inconclusive = small, poorly fitted or top-dose-only effect, or effect the other way, or a change in a side signal; also: % of control where 0% means no effect); settings: HEK293 ACTOne CNG channel cells, membrane potential fluorescence; activation (PDE inhibition): at 22.9 µM (top of the series)
UniProt Q07343, sequence (Q07343 whole entry, looked up): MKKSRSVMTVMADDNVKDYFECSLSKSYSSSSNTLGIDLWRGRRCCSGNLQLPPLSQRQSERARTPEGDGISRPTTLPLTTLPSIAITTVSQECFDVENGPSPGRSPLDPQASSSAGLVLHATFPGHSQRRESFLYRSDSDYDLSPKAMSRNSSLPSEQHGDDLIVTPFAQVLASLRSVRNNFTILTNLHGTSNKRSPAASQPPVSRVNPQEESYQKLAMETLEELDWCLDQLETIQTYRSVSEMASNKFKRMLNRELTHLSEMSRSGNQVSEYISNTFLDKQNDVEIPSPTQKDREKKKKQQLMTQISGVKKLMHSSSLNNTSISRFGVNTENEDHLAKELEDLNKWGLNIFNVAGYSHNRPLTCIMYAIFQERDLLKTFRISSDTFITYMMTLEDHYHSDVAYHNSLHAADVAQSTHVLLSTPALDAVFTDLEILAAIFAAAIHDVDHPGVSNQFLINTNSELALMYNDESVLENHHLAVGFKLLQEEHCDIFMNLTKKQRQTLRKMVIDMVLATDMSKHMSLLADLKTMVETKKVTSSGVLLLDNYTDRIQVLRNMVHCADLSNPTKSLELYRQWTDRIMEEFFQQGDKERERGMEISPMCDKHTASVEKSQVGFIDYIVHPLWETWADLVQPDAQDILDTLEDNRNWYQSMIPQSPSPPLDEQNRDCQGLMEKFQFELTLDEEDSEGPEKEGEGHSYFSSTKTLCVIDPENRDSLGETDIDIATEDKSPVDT
Method in brief: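 ACTOne HEK293 cells carry a modified cAMP-gated CNG channel and express endogenous PDE4; plated 1000 cells/well, compounds up to 22.9 uM final. Membrane-potential dye fluorescence (ex 535/em 590) was read; parental cells received 10 uM forskolin + 100 uM RO 20-1724.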

[15] = molecular target: Cytochrome P450 2C9 (Homo sapiens) (UniProt P11712); test: qHTS Assay for Inhibitors and Substrates of Cytochrome P450 2C9 (AID 883); settings: recombinant CYP2C9, luciferin-H luminescence, 60 min; series mostly up to 57.1 µM; also: potency is read from the fitted curve at half-maximal effect; nearly all actives have a fitted effect of over 60% in size
Method in brief: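 A luminogenic readout tracked human CYP2C9 (10nM) converting deoxyluciferin (100uM, at KM) in 25mM KPO4 during 60 min at 37C with regenerated NADPH. Values normalized to 57uM sulphaphenazole as complete inhibition.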

[16] = S16 Schwann cell viability assay (CellTiter-Glo assay) (AID 624031); settings: S16 rat Schwann cells viability, 24 h; series mostly up to 57.5 µM;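 also: native untransfected S16 rat Schwann cells; plate controls were DMSO-treated cells for no effect and cell-free wells for full effect; nearly all actives have a fitted effect of over 70% in size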
Method in brief: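 Counter-screen for cytotoxicity: parental S16 rat Schwann cells lacking the PMP22 reporters, treated 24 h with compound, viability from cellular ATP by CellTiter-Glo luminescence, normalized to DMSO (0%) and no-cell wells.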

[17] = qHTS of pediatric cancer cell lines to identify multiple opportunities for drug repurposing: Primary screen for BT-37 cells (AID 1347094); settings: BT-37 viability, CellTiter-Glo luminescence, 48 h; series mostly up to 57.3 µM;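 also: plate controls were DMSO for no effect and bortezomib for full effect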
Method in brief: as §1

[18] = qHTS of pediatric cancer cell lines to identify multiple opportunities for drug repurposing: Primary screen for Rh18 cells (AID 1347102); settings: Rh18 rhabdomyosarcoma viability, CellTiter-Glo luminescence, 48 h; series mostly up to 46 µM; also: % is scaled to controls: 0 for no effect and ±100 for the full control effect; nearly all actives have a fitted effect of over 65% in size
Method in brief: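 Cells (500-1,000/well) in growth media were settled 5 h at 37 degrees C, then given compounds for 48 h. Viability was read as CellTiter-Glo luminescence. Primary runs used MIPE at 11 points (0.78 nM-46 µM) and NPC at 8 points (0.59 nM-46 µM); follow-ups used 11 points.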

[19] = qHTS of pediatric cancer cell lines to identify multiple opportunities for drug repurposing: Primary screen for RD cells (AID 1347104); settings: RD rhabdomyosarcoma viability, CellTiter-Glo luminescence, 48 h; activity change, negative = cytotoxic: at 46 µM (top of the series);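 also: plate controls were DMSO for no effect and bortezomib for full effect; nearly all actives have a fitted effect of over 55% in size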
Method in brief: as §1

[20] = A High-Content qHTS Against Drug Library for the Identification of Small Molecules that Inhibit DYT1 Early Onset Primary Dystonia-Associated Cell Pathology (AID 1645839; calls by dose curve; also: potency is read from the fitted curve at half-maximal effect); settings: HEK293 Flp-In EGFP-delE TorsinA, punctate imaging, 48 h; series mostly up to 46.1 µM
Method in brief: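 Readout: %pathology, the punctate EGFP-TorsinA distribution from imaging, as the primary channel and cell count as the toxicity counterscreen. HEK293 Flp-In cells expressing delE TorsinA were induced with tetracycline and treated with compound for 48 h.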

CP215 = test: qHTS profiling for inhibitors of Plasmodium falciparum proliferation (AID 504749); also: nearly all actives have a fitted effect of over 60% in size; also: potency is read from the fitted curve at half-maximal effect; settings: P. falciparum in erythrocytes, SYBR Green DNA, 72 h; series mostly up to 28.7 µM
Method in brief: (§2)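 Parasite proliferation within erythrocytes, 72 h exposure. Endpoint: SYBR Green I fluorescence after overnight lysis at room temperature. Controls: 0.29 uM artemisinin, DMSO.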

CP325 = test: as above; settings: P. falciparum in erythrocytes, SYBR Green DNA, 72 h; series mostly up to 28.7 µM
Method in brief: as §2

CP335 = test: as above; settings: P. falciparum in erythrocytes, SYBR Green DNA, 72 h; series mostly up to 28.7 µM
Method in brief: as §2

FAB9 = test: as above; settings: P. falciparum in erythrocytes, SYBR Green DNA, 72 h; series mostly up to 28.7 µM
Method in brief: as §2

JCK = test: as above; settings: P. falciparum in erythrocytes, SYBR Green DNA, 72 h; series mostly up to 28.7 µM
Method in brief: as §2

N140 = test: as above; settings: P. falciparum in erythrocytes, SYBR Green DNA, 72 h; series mostly up to 28.7 µM
Method in brief: as §2

PAD = test: as above; settings: P. falciparum in erythrocytes, SYBR Green DNA, 72 h; series mostly up to 28.7 µM
Method in brief: as §2

PC26 = test: as above; settings: P. falciparum in erythrocytes, SYBR Green DNA, 72 h; series mostly up to 28.7 µM
Method in brief: as §2
Tags tell the direction and shape of the fitted curve.

C=CCn1c(=O)n([C@@H]2O[C@H](CO)[C@@H](O)[C@H]2O)c2nc(N)[nH]c(=O)c21
inactive: Potency [1] | Potency [2] | Potency [3] | max response (CRL-7250) -6.63% | Potency [6]
inconclusive: Potency [4] 22.4 µM [cytotoxic, partial curve, poor fit] | Potency [5] 31.6 µM [inhibitor, partial curve, poor fit] and 5.62 µM [inhibitor, partial curve, poor fit]

Cn1nnc(-c2ccc(-c3ccc(N4C[C@H](CO)OC4=O)cc3F)cn2)n1
inconclusive: Potency [8] 21.3 µM [inhibitor, single point] | Potency [9] 21.3 µM [inhibitor, single point] | Potency (CRL-7250) 29.1 µM [inhibitor, single point]
inactive: Potency [7] | Potency [10]

COc1cc(C/C(=C/NC(C)=O)N(CC(=O)Cc2ccccc2)C(C)=O)cc2c1OCO2
inactive: Potency [12] | max response (CRL-7250) -6.34%
inconclusive: Potency [11] 7.96 µM [inhibitor, single point] | Potency [10] 14.6 µM [activator, partial curve, poor fit]

C/C=C(\C)C(=O)OC1CC2C(CC=C3CC(OC4CC(OC)C(OC5CC(OC)C(OC6CC(OC)C(OC7CC(OC)C(OC8CC(OC)C(OC9OC(CO)C(O)C(O)C9O)C(C)O8)C(C)O7)C(C)O6)C(C)O5)C(C)O4)CCC32C)C2(O)CCC(C(C)=O)C12C (stereo not drawn)
inactive: activity change, negative = inhibition [7] 20.8% [at 19.1 µM] | outcome (CRL-7250)
inconclusive: Potency [13] 3.87 µM [inhibitor, single point] | Potency [12] 4.34 µM [inhibitor, single point]

Nc1ccc(S(=O)(=O)Nc2cnc3ccccc3n2)cc1
inactive: Potency [14] | Potency [16] | Potency [11] | Potency [17] | Potency [18] | Potency [19] | Potency (CP325) | Potency (CP335) | Potency (FAB9) | Potency (JCK) | Potency (N140) | Potency (PAD) | Potency (PC26)
inconclusive: Potency [15] 3.98 µM [inhibitor, partial curve] | Potency [5] 31.6 µM [inhibitor, partial curve, poor fit] | Potency [20] 11.2 µM [inhibitor, partial curve] | Potency (CP215) 19 µM [inhibitor, single point] | Potency (CRL-7250) 21.1 µM [inhibitor, single point]
